The record followed here is publication PMC4336329 (PLoS ONE, 2015).

The structures appear in SMILES notation. Screen size: about 310,000 compounds; about 2,200 (0.71%) showed an effect of 50% or more. Effects have a minus sign here. The list shows a part of the results.

The target of this assay is human ether-à-go-go-related gene (hERG) potassium channel (human, UniProt Q12809). Briefly: primary screen, population patch clamp on CHO cells stably expressing hERG.
Chain of human ether-à-go-go-related gene (hERG) potassium channel (Q12809 whole entry, looked up): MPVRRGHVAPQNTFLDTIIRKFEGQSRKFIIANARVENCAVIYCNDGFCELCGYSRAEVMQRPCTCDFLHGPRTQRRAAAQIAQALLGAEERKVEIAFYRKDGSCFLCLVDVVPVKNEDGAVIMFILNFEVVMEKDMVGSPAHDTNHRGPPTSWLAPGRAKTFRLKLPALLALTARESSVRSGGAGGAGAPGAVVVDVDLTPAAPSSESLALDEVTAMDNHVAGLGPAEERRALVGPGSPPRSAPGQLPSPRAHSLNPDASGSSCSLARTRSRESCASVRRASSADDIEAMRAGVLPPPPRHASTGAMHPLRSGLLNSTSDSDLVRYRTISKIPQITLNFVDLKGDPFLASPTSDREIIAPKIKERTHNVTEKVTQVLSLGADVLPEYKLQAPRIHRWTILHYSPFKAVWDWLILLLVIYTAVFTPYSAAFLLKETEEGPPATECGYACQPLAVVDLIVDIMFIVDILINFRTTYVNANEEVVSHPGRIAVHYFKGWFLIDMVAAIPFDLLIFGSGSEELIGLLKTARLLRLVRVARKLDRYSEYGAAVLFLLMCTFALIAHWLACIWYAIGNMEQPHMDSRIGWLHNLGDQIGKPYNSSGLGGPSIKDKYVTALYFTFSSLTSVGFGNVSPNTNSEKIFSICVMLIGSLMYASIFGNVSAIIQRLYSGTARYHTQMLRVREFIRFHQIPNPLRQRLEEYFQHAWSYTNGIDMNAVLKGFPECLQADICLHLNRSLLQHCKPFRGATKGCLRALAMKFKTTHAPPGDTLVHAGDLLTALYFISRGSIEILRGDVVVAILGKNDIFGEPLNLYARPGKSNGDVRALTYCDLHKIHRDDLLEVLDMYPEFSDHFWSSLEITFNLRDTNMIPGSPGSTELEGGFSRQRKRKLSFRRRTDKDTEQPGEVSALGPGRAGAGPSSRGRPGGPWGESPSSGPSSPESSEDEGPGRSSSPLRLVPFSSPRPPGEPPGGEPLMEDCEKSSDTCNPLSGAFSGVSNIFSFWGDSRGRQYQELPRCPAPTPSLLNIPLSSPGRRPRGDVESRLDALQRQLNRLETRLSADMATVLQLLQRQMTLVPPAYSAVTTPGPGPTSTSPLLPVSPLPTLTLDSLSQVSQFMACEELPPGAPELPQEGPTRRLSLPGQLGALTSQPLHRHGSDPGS
Turning to `C=CCSc1ncc(-c2ccccc2)cn1`, the “hERG current change (%, negative = inhibition) at 1uM” value stood at 10.6%.

As to `COCCNC(=O)CCCn1c(=O)c2cc(OC)c(OC)cc2n(CC(=O)Nc2ccc(C)c(F)c2)c1=O`, the “hERG current change (%, negative = inhibition) at 1uM” value was 14.5%.

For `CCOc1ccc(-n2c(SCc3ccc(C#N)cc3)nnc2-c2cccnc2)cc1`, the “hERG current change (%, negative = inhibition) at 1uM” value is -65.1%.

`COc1ccc(NC(=O)N2CCCC(C(=O)NCc3ccccc3F)C2)cc1` (stereo not shown): the “hERG current change (%, negative = inhibition) at 1uM” value is listed as 13.3%.

Consider `CC[C@H](C)[C@H](NC(N)=O)C(=O)NCCc1ccc(OC)cc1`, for which the “hERG current change (%, negative = inhibition) at 1uM” value turned out to be 7.72%.

On to `CCOC(=O)Cc1csc(NC(=O)CSc2nncn2C)n1`, for which the “hERG current change (%, negative = inhibition) at 1uM” value amounted to 6.08%.

`CCc1ccccc1N(C(C)=O)c1nc(CN=C=S)cs1`: the “hERG current change (%, negative = inhibition) at 1uM” value worked out at 4.12%.

As to `CC(C)(C)c1ccc(-n2ncc3c2CCCC3NC(=O)CCN2CCCC2=O)cc1` (stereo not shown), the “hERG current change (%, negative = inhibition) at 1uM” value was 8.77%.

`CCn1c(=S)[nH]c2sc3c(c2c1=O)CCCCC3`: the “hERG current change (%, negative = inhibition) at 1uM” value stood at 13%.

As for `CCOc1ccc(S(=O)(=O)N(CC(=O)NCC(F)(F)F)Cc2ccco2)cc1`, the “hERG current change (%, negative = inhibition) at 1uM” value was 11%.

On to `Fc1ccc(C2CCCN2Cc2nc(-c3cnccn3)no2)cc1` (stereo not shown), for which the “hERG current change (%, negative = inhibition) at 1uM” value is listed as 6.97%.

As for `Cn1c(SCC(=O)Nc2cccc(S(=O)(=O)N3CCOCC3)c2)nnc1-c1ccncc1`, the “hERG current change (%, negative = inhibition) at 1uM” value worked out at 2.91%.

As to `O=S(=O)(c1cccc(C(F)(F)F)c1)N1CCC(O)(c2cccnc2)CC1`, the “hERG current change (%, negative = inhibition) at 1uM” value is 2.73%.

For the compound `O=C(c1nc(SCc2ccc([N+](=O)[O-])cc2)n2ccccc12)C(F)(F)F`, the “hERG current change (%, negative = inhibition) at 1uM” value is reported as -15.6%.

Regarding `CSc1cccc(NC(=O)CNS(=O)(=O)c2ccccc2)c1`, the “hERG current change (%, negative = inhibition) at 1uM” value is 18.4%.

`O=C(CCCn1c(=S)[nH]c2ccccc2c1=O)N1CCN(c2cccc(Cl)c2)CC1`: the “hERG current change (%, negative = inhibition) at 1uM” value is 7.98%.

Regarding `O=C(Nc1cccc(S(=O)(=O)N2CCCCCC2)c1)c1ccc2c(c1)OCO2`, the “hERG current change (%, negative = inhibition) at 1uM” value is on record as 13.7%.

Consider `O=C(O)c1ccc(NC(=O)c2ccco2)c(NC(=O)c2ccco2)c1`, for which the “hERG current change (%, negative = inhibition) at 1uM” value stood at 9.85%.

As to `CCOc1ccccc1OCCC(=O)OCC(=O)c1ccc[nH]1`, the “hERG current change (%, negative = inhibition) at 1uM” value was -1.67%.

With `CC(=O)Nc1ccccc1N(CC(O)Cn1c2ccccc2c2ccccc21)S(=O)(=O)c1ccc(C)cc1` (stereo not shown), the “hERG current change (%, negative = inhibition) at 1uM” value is given as 18.3%.

Consider `O=C(CCCOc1ccc(Cl)cc1Cl)N/N=C/c1cccc([N+](=O)[O-])c1`, for which the “hERG current change (%, negative = inhibition) at 1uM” value is listed as 7.74%.

Turning to `Cc1ccc(NC(=O)CCc2c(C)nn(-c3ccc(N4CCCCC4)nn3)c2C)cc1C`, the “hERG current change (%, negative = inhibition) at 1uM” value is 2.45%.

In the case of `Cc1ccc(-c2cc(C(=O)N/N=C/c3ccoc3)c3ccccc3n2)cc1`, the “hERG current change (%, negative = inhibition) at 1uM” value came to 11.9%.

Consider `Cn1c(Cn2nnc3ccccc32)nnc1SCC(=O)c1ccc(F)cc1`, for which the “hERG current change (%, negative = inhibition) at 1uM” value is 6.16%.

Turning to `N#CCCNS(=O)(=O)c1ccc(C(=O)OCC(=O)Nc2ccc3c(c2)OCO3)cc1`, the “hERG current change (%, negative = inhibition) at 1uM” value turned out to be 6.85%.

Take `CCOc1cc(C(=O)Nc2ccc(C)cc2C)ccc1OCC(=O)N1CCCCC1`: the “hERG current change (%, negative = inhibition) at 1uM” value is listed as 3.78%.

On to `Cc1cccc(NC(=O)C2CCN(S(=O)(=O)c3ccc4c(c3)OCCO4)CC2)n1`, for which the “hERG current change (%, negative = inhibition) at 1uM” value is reported as -6.28%.

With `Cc1ccc(CNC(=O)CN2C(=O)NC(C)(c3cccc(Br)c3)C2=O)cc1` (stereo not shown), the “hERG current change (%, negative = inhibition) at 1uM” value amounted to 10.9%.

In the case of `CC(C)n1nnnc1SCC(=O)Nc1ccccc1F`, the “hERG current change (%, negative = inhibition) at 1uM” value stood at 12.1%.

As to `CCCn1c(N)c(C(=O)CSc2nc(C)cs2)c(=O)[nH]c1=O`, the “hERG current change (%, negative = inhibition) at 1uM” value is given as -18.3%.

For the compound `COc1ccc(NS(=O)(=O)c2ccc(O)c(C(=O)OCC(=O)NC(C)C3CC4CCC3C4)c2)cc1` (stereo not shown), the “hERG current change (%, negative = inhibition) at 1uM” value was determined as 13.6%.

For `O=S(=O)(c1cccc(Cl)c1)N1CCCC1`, the “hERG current change (%, negative = inhibition) at 1uM” value was determined as 10.4%.

For `COc1cc([N+](=O)[O-])ccc1NC(=O)Cc1ccc(F)cc1`, the “hERG current change (%, negative = inhibition) at 1uM” value amounted to 7.21%.

On to `CCOc1ccccc1C(=O)NCC(=O)NCCc1ccc(S(N)(=O)=O)cc1`, for which the “hERG current change (%, negative = inhibition) at 1uM” value is on record as 13.8%.

Turning to `O=C(/C=C/c1cccc([N+](=O)[O-])c1)NCCSCc1c(Cl)cccc1Cl`, the “hERG current change (%, negative = inhibition) at 1uM” value worked out at 9.03%.

Consider `COc1ccccc1C(=O)NCCC(=O)NCC(c1ccco1)N1CCCC1` (stereo not shown), for which the “hERG current change (%, negative = inhibition) at 1uM” value amounted to 16.4%.

Consider `CCn1c2nc(SCCN3CCOCC3)nnc2c2cc(C)cc(C)c21`, for which the “hERG current change (%, negative = inhibition) at 1uM” value is reported as -69.2%.

With `COCCNC(=O)c1cc2oc3ccccc3c2n1C`, the “hERG current change (%, negative = inhibition) at 1uM” value was 13.2%.

As to `CCC(C)/C(C)=N/NC(=O)C1COc2ccccc2O1` (stereo not shown), the “hERG current change (%, negative = inhibition) at 1uM” value is 8.4%.

For `CC(C)c1nc(SCC(=O)Nc2nccs2)c2ccccc2n1`, the “hERG current change (%, negative = inhibition) at 1uM” value is recorded as 13.8%.

For the compound `O=S(=O)(Nc1nc2ccccc2nc1Nc1ccc2c(c1)OCCO2)c1cccs1`, the “hERG current change (%, negative = inhibition) at 1uM” value worked out at 9.04%.

Consider `O=C(Cc1ccc(F)cc1)Nc1nc(-c2ccc(F)c(F)c2)cs1`, for which the “hERG current change (%, negative = inhibition) at 1uM” value stood at 15.9%.

As for `CCOC(=O)N1CCN(C(=O)CC(C)S(=O)(=O)c2cc3c(cc2C)NC(=O)CO3)CC1` (stereo not shown), the “hERG current change (%, negative = inhibition) at 1uM” value was found to be 6.05%.

Take `COc1ccc(NC(=O)C2CSC3c4ccccc4C(=O)N23)cc1` (stereo not shown): the “hERG current change (%, negative = inhibition) at 1uM” value is 11.2%.

With `O=C(Nc1ccc(S(=O)(=O)N2CCOCC2)cc1)c1ccc([N+](=O)[O-])s1`, the “hERG current change (%, negative = inhibition) at 1uM” value is reported as 8.45%.

On to `O=c1[nH]c(=O)n(Cc2ccc(F)cc2)c(O)c1C=NCC1CCCO1` (stereo not shown), for which the “hERG current change (%, negative = inhibition) at 1uM” value came to 5.85%.

As for `COc1ccc(NC(=O)NCCc2c[nH]c3ccccc23)c(OC)c1`, the “hERG current change (%, negative = inhibition) at 1uM” value is recorded as 8.55%.

As to `COc1cc(NC(=O)COC(=O)CNC(=O)c2ccc(C)s2)cc(OC)c1`, the “hERG current change (%, negative = inhibition) at 1uM” value came to 9.55%.

On to `CN1C(=O)c2ccccc2Sc2ccc(NC(=O)N3CCOCC3)cc21`, for which the “hERG current change (%, negative = inhibition) at 1uM” value is recorded as -0.0276%.

As for `COc1cccc(N2CCN(C(=O)c3ccc(CS(=O)c4ccc(C)cc4)o3)CC2)c1` (stereo not shown), the “hERG current change (%, negative = inhibition) at 1uM” value was -14.8%.

As for `CN(C)C(=O)/C(=C/c1cn(-c2ccccc2)nc1-c1cccc([N+](=O)[O-])c1)NC(=O)c1ccccc1`, the “hERG current change (%, negative = inhibition) at 1uM” value came to 1.97%.

For the compound `COc1cc(OC)nc(Oc2cccc(Cl)c2C)n1`, the “hERG current change (%, negative = inhibition) at 1uM” value is 14%.

For `Nc1nnc(SCC(=O)OCC(=O)NC2CCCCC2)s1`, the “hERG current change (%, negative = inhibition) at 1uM” value worked out at 6.52%.

With `O=C1OC(c2ccc([N+](=O)[O-])cc2)=N/C1=C/N1CC2CC(C1)c1cccc(=O)n1C2` (stereo not shown), the “hERG current change (%, negative = inhibition) at 1uM” value is on record as -13%.

Regarding `COc1ccc(CSC2=CS(=O)(=O)c3ccccc3N2)cc1`, the “hERG current change (%, negative = inhibition) at 1uM” value is on record as 13.8%.
